Values joined by “and” are separate entries in the source; they are usually repeats but may differ in a detail not shown here. Equal entries are not always repeated. Hit rate of the full screen: of about 220,000 compounds, about 16,000 (7.3%) were called active. Inconclusive means that the source gave no clear call. Such entries were picked first, then a sample of the others. Calls come from the whole dose curve; as a rule, active = well fitted inhibition curve with a large enough effect (not every such curve was filed as active); inconclusive = small, poorly fitted or top-dose-only effect, or another doubt; inactive = no such curve, though single readings can be large or run the other way. Potencies beside an inconclusive call are fits to weak or partial responses and may not hold up.
target: Aldehyde dehydrogenase 1A1 (Homo sapiens) (UniProt P00352); assay: qHTS Assay for Inhibitors of Aldehyde Dehydrogenase 1 (ALDH1A1); conditions: Purified ALDH1A1, NADH fluorescence, propionaldehyde substrate; series mostly up to 75.3 µM
Potency is the fitted concentration of half-maximal effect; tags give direction and shape of the fitted curve.

UniProt P00352, sequence (P00352 whole entry, looked up): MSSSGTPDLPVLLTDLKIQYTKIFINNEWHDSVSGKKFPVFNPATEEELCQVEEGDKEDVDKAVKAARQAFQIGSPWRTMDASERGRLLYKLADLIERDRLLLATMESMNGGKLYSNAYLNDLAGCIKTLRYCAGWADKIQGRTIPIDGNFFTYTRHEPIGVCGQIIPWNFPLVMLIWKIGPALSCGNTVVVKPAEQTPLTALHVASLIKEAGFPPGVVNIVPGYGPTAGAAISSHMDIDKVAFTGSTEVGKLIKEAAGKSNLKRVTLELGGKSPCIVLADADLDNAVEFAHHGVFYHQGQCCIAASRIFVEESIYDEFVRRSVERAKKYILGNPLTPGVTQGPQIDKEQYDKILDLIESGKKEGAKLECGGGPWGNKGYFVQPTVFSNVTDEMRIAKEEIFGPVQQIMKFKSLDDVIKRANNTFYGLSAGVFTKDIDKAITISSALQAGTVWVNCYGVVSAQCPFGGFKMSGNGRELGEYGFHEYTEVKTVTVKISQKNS

SMILES	Potency
CC(Sc1nc2ccccc2[nH]1)C(=O)O (centres undefined)	inactive
Cc1cc(Nc2ccccc2N2CCOCC2)n2ncnc2n1	inactive
COc1ccc(N2CCN(C(=O)CSc3ncnc4c3cnn4-c3ccc(OC)cc3)CC2)cc1	inactive
Cn1c2ccc(F)cc2c2ncn(Cc3ccccn3)c(=O)c21	inconclusive: 31.6 µM [inhibitor, partial curve]
COc1ccccc1CN(Cc1nc2ccccc2c(=O)[nH]1)C(=O)Nc1ccc(C)cc1	inactive
CCOC(=O)CSc1nc2cc3c(cc2cc1CC)OCCO3	inconclusive: 39.8 µM [inhibitor, single point]
Cc1ccc(N2C(=O)CC(N(O)C3CC(=O)N(c4ccc(C)cc4)C3=O)C2=O)cc1 (centres undefined)	active: 2.82 µM
OCCN(CCO)CC(O)COCCC12CC3CC(CC(C3)C1)C2 (centres undefined)	inconclusive: 1.12 µM [inhibitor, full curve]
CC1=CC(C)(C)Nc2ccc(OC(=O)CN3C(=O)CCC3=O)cc21	inactive
Cc1ccccc1N(CC(=O)NCCSCc1ccco1)S(C)(=O)=O	inconclusive: 39.8 µM [inhibitor, single point]
Cc1ccc(S(=O)(=O)N2CCC(N3CCCCCC3)CC2)cc1	inconclusive: 39.8 µM [inhibitor, single point]
C=CCOC(=O)C1=C(C)N(C)C(=O)NC1c1cc2c(cc1Br)OCO2 (centres undefined)	inconclusive: 39.8 µM [inhibitor, single point]
CCn1cc(/C=N/NC(=O)c2cc3c(ccc4ccccc43)o2)c2ccccc21	inconclusive: 37.7 µM [inhibitor, single point]
CC(=O)C1C(=O)C=C(c2cccs2)CC1c1ccccc1 (centres undefined)	inconclusive: 22.4 µM [inhibitor, partial curve]
COc1ccc(CC(=O)Nc2cc(S(=O)(=O)N3CCOCC3)ccc2N2CCOCC2)cc1	inconclusive: 22.4 µM [inhibitor, single point]
CC1CN(S(=O)(=O)c2cccc(C(=O)OCC(=O)c3cccs3)c2)CC(C)O1 (centres undefined)	inconclusive: 28.2 µM [inhibitor, single point]
CCOCC(=O)Nc1nnc(C)s1	inconclusive: 39.8 µM [inhibitor, single point]
Cc1cccc2sc(NNC(=O)C3=COCCO3)nc12	inconclusive: 39.8 µM [inhibitor, single point]
O=C(NC(=S)Nc1cccc(NC(=S)NC(=O)c2ccco2)n1)c1ccco1	inconclusive: 39.8 µM [inhibitor, single point]
COc1ccccc1-c1coc2cc(OCC(=O)OCc3ccccc3)ccc2c1=O	inconclusive: 20 µM [inhibitor, partial curve]
Cc1cc(C)cc(NC(=S)NCCSc2ccc(Cl)cc2)c1	inactive
CC1(C)CC(=O)C(C(c2ccco2)C2C(=O)CC(C)(C)CC2=O)C(=O)C1	inconclusive: 31.6 µM [inhibitor, single point]
CC1CCCC/C1=N\NC(=S)Nc1ccccc1 (centres undefined)	inconclusive: 39.8 µM [inhibitor, single point]

SMILES	Potency
COCCn1c(N)c(N(Cc2ccccc2)C(=O)c2cc3ccccc3o2)c(=O)[nH]c1=O	inactive
FC(F)(F)c1ccc2c(c1)N1CCCC1CN2 (centres undefined)	inconclusive: 0.0035 µM [inhibitor, full curve, poor fit]
CCNc1ncc2nc(-c3ccc(OC)cc3)c(=O)n(CCc3ccccc3)c2n1	inconclusive: 14.1 µM [inhibitor, partial curve]
O=c1nc(N2CCOCC2)nc(N/N=C/c2ccc3c(c2)OCO3)[nH]1	inconclusive: 39.8 µM [inhibitor, single point]
N#CC1=C(N)Oc2c(sc3ccccc23)C1c1ccco1 (centres undefined)	inconclusive: 39.8 µM [inhibitor, single point]
Cc1ccc(NC(=O)CCC(=O)OCC(=O)c2ccc(-c3ccccc3)cc2)cc1	inconclusive: 22.4 µM [inhibitor, partial curve]
CCc1ccccc1NC(=O)COc1ccc2oc(-c3ccc(OC)cc3)cc(=O)c2c1	inconclusive: 28.2 µM [inhibitor, partial curve]
COc1ccc(C2CC(c3cccs3)=NN2C(=O)CSc2nc3c(cnn3-c3ccccc3)c(=O)[nH]2)cc1 (centres undefined)	inconclusive: 3.55 µM [inhibitor, partial curve]
O=C(c1cnccn1)N1CCC2(CCCN(C(c3ccccc3)c3ccccc3)C2)CC1	inconclusive: 14.1 µM [inhibitor, partial curve]
CCc1ccc(Cc2cnc(NC(=O)C3=NCCN3)s2)cc1	inactive
O=C(COC(=O)C12CC3CC(CC(O)(C3)C1)C2)N1CCN(S(=O)(=O)c2ccc(Cl)cc2)CC1	inconclusive: 39.8 µM [inhibitor, single point]
CN(C)CC1CCCCC1C1(O)c2ccccc2CSc2sccc21 (centres undefined)	inactive
CN(C)/C=N/c1nccc(-c2cccs2)n1	inconclusive: 12.6 µM [inhibitor, partial curve]
FC(F)(F)c1nc(-c2cccnc2)ncc1-c1nnnn1-c1ccccc1	inactive
Cc1ccccc1/C=N/N1CCN(c2ccccc2)CC1	inactive
CCCc1cc2c(cc1NC(=O)c1ccc(C(C)(C)C)cc1)OCO2	inconclusive: 14.1 µM [inhibitor, partial curve]
CCOc1ccc(/C=N/Nc2cc(=O)n(C)c(=O)n2C)cc1	inconclusive: 39.8 µM [inhibitor, single point]
CN1CCN(c2ncc3nc(CCc4ccccc4)c(=O)n(CCC#N)c3n2)CC1	inconclusive: 35.5 µM [inhibitor, partial curve]
COc1cc(C2C(C#N)=C(N)Oc3cc(C)oc(=O)c32)cc2c1OCO2 (centres undefined)	inconclusive: 31.6 µM [inhibitor, single point]
Cc1nn(CC(=O)Nc2ccc(Cl)cn2)c(C)c1Br	inactive
COc1cc(OC)c([N+](=O)[O-])cc1/C=N/NC(=O)c1ccncc1	inconclusive: 31.6 µM [inhibitor, single point]
CCOC(=O)c1c(C)[nH]c(C=Nc2ccccc2)c1O	inconclusive: 39.8 µM [inhibitor, single point]
Cc1nc(SCc2ccc(O)c([N+](=O)[O-])c2)c([N+](=O)[O-])[nH]1	inconclusive: 35.5 µM [inhibitor, single point]

SMILES	Potency
O=C(c1cc(-c2ccccc2)on1)N1CCCC1	inactive
COc1ccc(C(C#N)N2N=C(c3ccccc3)CC2c2ccccc2)cc1OC (centres undefined)	inconclusive: 25.1 µM [inhibitor, single point]
Cc1ccc(Cc2cnc(N)s2)o1	inconclusive: 39.8 µM [inhibitor, single point]
Cc1c(Cl)cccc1NC(=S)NC(=O)CCN1C(=O)c2ccccc2C1=O	inconclusive: 31.6 µM [inhibitor, single point]
Cc1ccc(-c2nnc3ccc(SC(C)C(=O)O)nn23)cc1 (centres undefined)	inconclusive: 25.1 µM [inhibitor, partial curve]
Cc1ccc(C)c(NC(=O)c2cc(-c3ccccc3)nn2-c2ccccc2)c1	inconclusive: 39.8 µM [inhibitor, single point]
Cc1ccc(C)n1-c1ccc(C(=O)Nc2ccccc2)cc1	active: 28.2 µM
N#CC1=C(c2ccc(-c3ccccc3)cc2)COC1=O	inconclusive: 35.5 µM [inhibitor, single point]
CCOC(=O)C1C(=O)C=C(c2cccc(NS(C)(=O)=O)c2)CC1c1ccco1 (centres undefined)	active: 20 µM
CC[C@@H]1Cn2c(c3nc(-c4cc(Cl)cc(Cl)c4Cl)nc-3n(C)c2=O)N1	inconclusive: 25.1 µM [inhibitor, partial curve]
O=c1[nH]c(-c2cccnc2)nc2sc(-c3ccccc3)cc12	inconclusive: 28.2 µM [inhibitor, partial curve]
O=C(Nc1cccc(C(=O)Nc2ccc(S(=O)(=O)O)c3cc(S(=O)(=O)O)cc(S(=O)(=O)O)c23)c1)Nc1cccc(C(=O)Nc2ccc(S(=O)(=O)O)c3cc(S(=O)(=O)O)cc(S(=O)(=O)O)c23)c1	inconclusive: 39.8 µM [inhibitor, single point] and inconclusive: 35.5 µM [inhibitor, single point]
NC(=S)N/N=C/c1coc2ccc(Cl)cc2c1=O	inconclusive: 3.55 µM [inhibitor, full curve]
CNS(=O)(=O)c1cccc2cccnc12	inactive
CCOC(=O)C1CCN(c2c(NC3CCCCCCC3)c(=O)c2=O)CC1	inconclusive: 39.8 µM [inhibitor, single point]
CCOc1cc(OCC)nc(S(C)(=O)=O)n1	inactive
Cc1occc1C(=O)Nc1ccc(S(=O)(=O)N2CCN(C)CC2)cc1	inconclusive: 25.1 µM [inhibitor, single point]
O=C1C=C(O)C(n2cncn2)C(c2ccc3c(c2)OCO3)C1 (centres undefined)	inconclusive: 7.94 µM [inhibitor, full curve]
CCOc1ccc(Nc2oc(-c3cccs3)nc2C#N)cc1	inconclusive: 37.7 µM [inhibitor, single point]
Nc1ncnc2c1nc(Br)n2[C@@H]1O[C@H]2COP(=O)(O)O[C@@H]2[C@@H]1O	inactive
N=C1C(c2ccccc2)=C(O)C2CCc3ccccc3N12 (centres undefined)	inactive
O=C(NCc1n[nH]c(=S)n1-c1ccccc1)c1ccc(S(=O)(=O)N2CCOCC2)cc1	active: 17.8 µM
N#CCC1c2ccccc2CCN1C(=O)Nc1ccc(Cl)cc1 (centres undefined)	inactive

From PubChem BioAssay AID1030 (National Center for Advancing Translational Sciences (NCATS), 2008)
